This is one part of the list.
Columns and labels:
HSkMC = human skeletal muscle cells; assay: cytotoxicity call (relative viability < 0.9); settings: 10 µM
HepG2 = assay: cytotoxicity call (relative viability < 0.9); settings: 10 µM
S. aureus RN4220 = assay: growth inhibition call (relative growth <= 0.2); settings: 50 µM

SMILES | cytotoxicity call (HSkMC) | cytotoxicity call (HepG2) | growth inhibition call (S. aureus RN4220)
COCCOC(=O)N1C(=O)[C@@]2(c3cc(C#CCNC(N)=O)ccc31)[C@H](C(=O)N1CCCCCCC1)[C@H]1C(=O)O[C@H](c3ccccc3)[C@H](c3ccccc3)N1[C@@H]2c1ccccc1OCCO | inactive | inactive | inactive
CO[C@@H]1CN(C)C(=O)c2cc(NC(=O)CC(F)(F)F)ccc2OC[C@@H](C)N(S(=O)(=O)c2cn(C)cn2)C[C@H]1C | inactive | inactive | inactive
Cc1noc(C)c1S(=O)(=O)N(C)C[C@H]1Oc2ccc(NC(=O)CCN3CCOCC3)cc2C(=O)N([C@H](C)CO)C[C@H]1C | inactive | inactive | inactive
CN1CCCC(n2nc(Cc3ccc(Cl)cc3)c3ccccc3c2=O)CC1.Cl (configuration not stated) | inactive | inactive | inactive
C[C@H](CO)N1C[C@H](C)[C@@H](CN(C)Cc2ccccc2C(F)(F)F)OCc2ccccc2-c2c(n(C)c3ccccc23)C1=O | active | inactive | inactive
CC(C)NC(=O)N(C)C[C@@H]1Oc2ccc(NC(=O)CCC(F)(F)F)cc2C(=O)N([C@@H](C)CO)C[C@@H]1C | inactive | inactive | inactive
C[C@H]1CN([C@@H](C)CO)C(=O)c2cc(NC(=O)CCCN(C)C)ccc2O[C@H]1CN(C)Cc1ccc(C(=O)O)cc1 | inactive | inactive | inactive
C[C@@H]1CN([C@@H](C)CO)C(=O)c2cc(NS(=O)(=O)c3cn(C)cn3)ccc2O[C@@H]1CN(C)Cc1ccccc1 | inactive | inactive | inactive
Cc1ccc(S(=O)(=O)N[C@@H](Cc2ccccc2)C(=O)NCCCn2cc(CN3C(=O)COC[C@H]3c3ccccc3)nn2)cc1 | inactive | inactive | inactive
C[C@H]1CN([C@@H](C)CO)C(=O)c2cc(C#CC3(O)CCCC3)cnc2O[C@H]1CN(C)C(=O)CN(C)C | inactive | inactive | inactive
COc1ccc(NC(=O)N(C)C[C@H]2Oc3ccc(NC(=O)Nc4ccc(C(F)(F)F)cc4)cc3CC(=O)N([C@@H](C)CO)C[C@H]2C)cc1 | inactive | active | inactive
C[C@H](CO)N1C[C@H](C)[C@@H](CN(C)Cc2ccc(Oc3ccccc3)cc2)Oc2ccc(NS(=O)(=O)c3ccc(F)cc3)cc2C1=O | inactive | inactive | inactive
C[C@@H]1CCCCO[C@@H](CN(C)S(=O)(=O)c2ccc(F)cc2)[C@H](C)CN([C@@H](C)CO)C(=O)c2cc(NC(=O)Nc3ccc4c(c3)OCO4)ccc2O1 | inactive | inactive | inactive
Cc1noc(C)c1NC(=O)N(C)C[C@H]1Oc2c(NC(=O)C3CCOCC3)cccc2C(=O)N([C@@H](C)CO)C[C@@H]1C | inactive | inactive | inactive
C[C@@H]1CN([C@@H](C)CO)C(=O)c2cc(NC(=O)Cn3cnnn3)ccc2O[C@@H]1CN(C)Cc1ccncc1 | inactive | inactive | inactive
COc1ccccc1C(=O)Nc1ccc2c(c1)C(=O)N(C)[C@H]1CC[C@H](CC(=O)NCCc3ccncc3)O[C@H]1CO2 | inactive | inactive | inactive
C[C@H](CO)N1C[C@H](C)[C@H](CN(C)C(=O)Nc2ccc(C(F)(F)F)cc2)OCCCC[C@H](C)Oc2ccc(N(C)C)cc2C1=O | inactive | inactive | inactive
Cc1ccc(S(=O)(=O)Nc2cccc3c2O[C@@H](CN(C)C(=O)Nc2ccc(C(F)(F)F)cc2)[C@H](C)CN([C@@H](C)CO)C3=O)cc1 | inactive | inactive | inactive
COc1ccc(S(=O)(=O)N(C)C[C@@H]2Oc3c(NC(=O)c4ccno4)cccc3C(=O)N([C@@H](C)CO)C[C@@H]2C)cc1 | inactive | inactive | inactive
CN(C)Cc1cn(CC[C@H]2CC[C@H](NC(=O)Cc3cccnc3)[C@@H](CO)O2)nn1 | inactive | inactive | inactive
C[C@@H]1CCCCO[C@H](CN(C)C(=O)Nc2cccc3ccccc23)[C@@H](C)CN([C@H](C)CO)C(=O)c2cc(NC(=O)Cc3ccccc3)ccc2O1 | inactive | inactive | inactive
C[C@H]1CN([C@@H](C)CO)C(=O)Cc2cc(NC(=O)CCN3CCOCC3)ccc2O[C@H]1CN(C)Cc1ccc2c(c1)OCO2 | inactive | inactive | inactive
O=c1cc(-c2cc(O)c(O)c(O)c2)oc2cc(O)cc(O)c12 | inactive | inactive | inactive
C[C@H](CO)N1C[C@H](C)[C@@H](CN(C)S(=O)(=O)c2cccs2)Oc2ccc(NS(=O)(=O)c3cn(C)cn3)cc2C1=O | inactive | inactive | inactive

Source: the antibiotic and cytotoxicity screens of Wong et al. (2023)
